Assay results: paper PMC9911399, “Two distinct binding modes provide the RNA-binding protein RbFox with extraordinary sequence specificity”
Numbering of substitutions follows the chain as printed; changes in the protein carry UniProt numbers. The list shows a part of the results.

T1: RBFOX1 RRM (Homo sapiens, UniProt Q9NWB1 109-208)
T1 sequence: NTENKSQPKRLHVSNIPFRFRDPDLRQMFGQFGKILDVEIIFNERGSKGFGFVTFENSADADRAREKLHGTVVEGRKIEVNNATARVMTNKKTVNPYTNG

B1: GUAUAUU (DNA:RNA)
RNA: GGGAGACCGGAAUUCAGAUUGUCCGUAUAUUUUAAAUCCCGUCGUAGCCACCA
DNA 1: CAATCTGAATTCCGGTCTCCC
DNA 2: TGGTGGCTACGACGGGATT
B2: CGCUGGG (DNA:RNA)
RNA: B1 RNA with G25C, U26G, A27C, A29G, U30G, U31G
DNA 1: CAATCTGAATTCCGGTCTCCC
DNA 2: TGGTGGCTACGACGGGATT
B3: UCCAAUC (DNA:RNA)
RNA: B1 RNA with G25U, U26C, A27C, U28A, U31C
DNA 1: CAATCTGAATTCCGGTCTCCC
DNA 2: TGGTGGCTACGACGGGATT
B4: CCUACUC (DNA:RNA)
RNA: B1 RNA with G25C, U26C, A27U, U28A, A29C, U31C
DNA 1: CAATCTGAATTCCGGTCTCCC
DNA 2: TGGTGGCTACGACGGGATT
B5: GCUAAAA (DNA:RNA)
RNA: B1 RNA with U26C, A27U, U28A, U30A, U31A
DNA 1: CAATCTGAATTCCGGTCTCCC
DNA 2: TGGTGGCTACGACGGGATT
B6: CGUGCGU (DNA:RNA)
RNA: B1 RNA with G25C, U26G, A27U, U28G, A29C, U30G
DNA 1: CAATCTGAATTCCGGTCTCCC
DNA 2: TGGTGGCTACGACGGGATT
B7: UUCCAUC (DNA:RNA)
RNA: B1 RNA with G25U, A27C, U28C, U31C
DNA 1: CAATCTGAATTCCGGTCTCCC
DNA 2: TGGTGGCTACGACGGGATT
B8: GUCUUCU (DNA:RNA)
RNA: B1 RNA with A27C, A29U, U30C
DNA 1: CAATCTGAATTCCGGTCTCCC
DNA 2: TGGTGGCTACGACGGGATT
B9: GCGUCCU (DNA:RNA)
RNA: B1 RNA with U26C, A27G, A29C, U30C
DNA 1: CAATCTGAATTCCGGTCTCCC
DNA 2: TGGTGGCTACGACGGGATT
B10: GCCUGCG (DNA:RNA)
RNA: B1 RNA with U26C, A27C, A29G, U30C, U31G
DNA 1: CAATCTGAATTCCGGTCTCCC
DNA 2: TGGTGGCTACGACGGGATT
B11: CUCACCU (DNA:RNA)
RNA: B1 RNA with G25C, A27C, U28A, A29C, U30C
DNA 1: CAATCTGAATTCCGGTCTCCC
DNA 2: TGGTGGCTACGACGGGATT
B12: GGAUUGU (DNA:RNA)
RNA: B1 RNA with U26G, A29U, U30G
DNA 1: CAATCTGAATTCCGGTCTCCC
DNA 2: TGGTGGCTACGACGGGATT
B13: AAGUGUG (DNA:RNA)
RNA: B1 RNA with G25A, U26A, A27G, A29G, U31G
DNA 1: CAATCTGAATTCCGGTCTCCC
DNA 2: TGGTGGCTACGACGGGATT
B14: UACGAGA (DNA:RNA)
RNA: B1 RNA with G25U, U26A, A27C, U28G, U30G, U31A
DNA 1: CAATCTGAATTCCGGTCTCCC
DNA 2: TGGTGGCTACGACGGGATT
B15: GCUGGAA (DNA:RNA)
RNA: B1 RNA with U26C, A27U, U28G, A29G, U30A, U31A
DNA 1: CAATCTGAATTCCGGTCTCCC
DNA 2: TGGTGGCTACGACGGGATT
B16: AGAAAUU (DNA:RNA)
RNA: B1 RNA with G25A, U26G, U28A
DNA 1: CAATCTGAATTCCGGTCTCCC
DNA 2: TGGTGGCTACGACGGGATT
B17: GAGAACC (DNA:RNA)
RNA: B1 RNA with U26A, A27G, U28A, U30C, U31C
DNA 1: CAATCTGAATTCCGGTCTCCC
DNA 2: TGGTGGCTACGACGGGATT
B18: AGAACUG (DNA:RNA)
RNA: B1 RNA with G25A, U26G, U28A, A29C, U31G
DNA 1: CAATCTGAATTCCGGTCTCCC
DNA 2: TGGTGGCTACGACGGGATT
B19: UUAUCCU (DNA:RNA)
RNA: B1 RNA with G25U, A29C, U30C
DNA 1: CAATCTGAATTCCGGTCTCCC
DNA 2: TGGTGGCTACGACGGGATT
B20: CGAGACG (DNA:RNA)
RNA: B1 RNA with G25C, U26G, U28G, U30C, U31G
DNA 1: CAATCTGAATTCCGGTCTCCC
DNA 2: TGGTGGCTACGACGGGATT
B21: GCAAGCG (DNA:RNA)
RNA: B1 RNA with U26C, U28A, A29G, U30C, U31G
DNA 1: CAATCTGAATTCCGGTCTCCC
DNA 2: TGGTGGCTACGACGGGATT
B22: AAACUCG (DNA:RNA)
RNA: B1 RNA with G25A, U26A, U28C, A29U, U30C, U31G
DNA 1: CAATCTGAATTCCGGTCTCCC
DNA 2: TGGTGGCTACGACGGGATT
B23: CGUAACG (DNA:RNA)
RNA: B1 RNA with G25C, U26G, A27U, U28A, U30C, U31G
DNA 1: CAATCTGAATTCCGGTCTCCC
DNA 2: TGGTGGCTACGACGGGATT
B24: UAAUUAU (DNA:RNA)
RNA: B1 RNA with G25U, U26A, A29U, U30A
DNA 1: CAATCTGAATTCCGGTCTCCC
DNA 2: TGGTGGCTACGACGGGATT
B25: AACGGCC (DNA:RNA)
RNA: GGGAGACCGGAAUUCAGAUUGUCCAACGGCCUUAAAUCCCGUCGUAGCCACCA
DNA 1: CAATCTGAATTCCGGTCTCCC
DNA 2: TGGTGGCTACGACGGGATT
B26: CCUAAUA (DNA:RNA)
RNA: B1 RNA with G25C, U26C, A27U, U28A, U31A
DNA 1: CAATCTGAATTCCGGTCTCCC
DNA 2: TGGTGGCTACGACGGGATT
B27: AAUAGGG (DNA:RNA)
RNA: B25 RNA with C27U, G28A, C30G, C31G
DNA 1: CAATCTGAATTCCGGTCTCCC
DNA 2: TGGTGGCTACGACGGGATT
B28: UACCCUG (DNA:RNA)
RNA: B25 RNA with A25U, G28C, G29C, C30U, C31G
DNA 1: CAATCTGAATTCCGGTCTCCC
DNA 2: TGGTGGCTACGACGGGATT
B29: CUUUUGU (DNA:RNA)
RNA: B1 RNA with G25C, A27U, A29U, U30G
DNA 1: CAATCTGAATTCCGGTCTCCC
DNA 2: TGGTGGCTACGACGGGATT
B30: CUACAAU (DNA:RNA)
RNA: B1 RNA with G25C, U28C, U30A
DNA 1: CAATCTGAATTCCGGTCTCCC
DNA 2: TGGTGGCTACGACGGGATT
B31: ACGCUUA (DNA:RNA)
RNA: B25 RNA with A26C, C27G, G28C, G29U, C30U, C31A
DNA 1: CAATCTGAATTCCGGTCTCCC
DNA 2: TGGTGGCTACGACGGGATT

What follows are binders tested against T1, RBFOX1 RRM (assay: EMSA; HiTS-Eq, 1 nM pool, 10 min; buffer printed only for the single-RNA assays: 10 mM Tris pH 7.5, 150 mM NaCl, 3.4 mM EDTA, 0.001% NP-40, 30 C). Details: tags: His6 N-terminal (pET28a); label: 5' 32P.
Method in brief: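 Purified RbFox RRM (wild type or mutant) was equilibrated for 10 min in 50 µL with 1 nM of a 5′-radiolabelled pool of RNA with 7 randomized nucleotides, its flanks annealed to DNA oligonucleotides, across increasing protein concentrations. Free RNA was separated by 8% native PAGE, excised, reverse-transcribed, PCR-barcoded and sequenced on an Illumina HiSeq 2500. Relative association constants came from read-count changes of each variant against the control reaction, normalised to the cognate motif.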

Binder	binding signal
B1	0.00511 KA relative to UGCAUGU
B2	0.00732 KA relative to UGCAUGU
B3	0.00543 KA relative to UGCAUGU
B4	0.00173 KA relative to UGCAUGU
B5	0.00324 KA relative to UGCAUGU
B6	0.0143 KA relative to UGCAUGU
B7	0.00348 KA relative to UGCAUGU
B8	0.0169 KA relative to UGCAUGU
B9	0.0104 KA relative to UGCAUGU
B10	0.0321 KA relative to UGCAUGU
B11	0.00322 KA relative to UGCAUGU
B12	0.0266 KA relative to UGCAUGU
B13	0.0144 KA relative to UGCAUGU
B14	0.00972 KA relative to UGCAUGU
B15	0.0119 KA relative to UGCAUGU
B16	0.00368 KA relative to UGCAUGU

Binder	binding signal
B17	0.00801 KA relative to UGCAUGU
B18	0.0109 KA relative to UGCAUGU
B19	0.00375 KA relative to UGCAUGU
B20	0.0104 KA relative to UGCAUGU
B21	0.0145 KA relative to UGCAUGU
B22	0.00346 KA relative to UGCAUGU
B23	0.0091 KA relative to UGCAUGU
B24	0.0077 KA relative to UGCAUGU
B25	0.011 KA relative to UGCAUGU
B26	0.00095 KA relative to UGCAUGU
B27	0.00107 KA relative to UGCAUGU
B28	0.00795 KA relative to UGCAUGU
B29	0.0208 KA relative to UGCAUGU
B30	0.00174 KA relative to UGCAUGU
B31	0.00273 KA relative to UGCAUGU
